According to PubChem BioAssay AID540317 (National Center for Advancing Translational Sciences (NCATS), 2011):
In all, about 390,000 compounds went through this assay and about 2,200 (0.56%) were called active. The inconclusive results got no clear call from the source; some entries with a clear call stand among them for comparison. Calls come from the whole dose curve; as a rule, active = well fitted inhibition curve with a large enough effect; inconclusive = small, poorly fitted or top-dose-only effect; inactive = no such curve, though single readings can be large or run the other way. Potencies beside an inconclusive call are fits to weak or partial responses and may not hold up.

The compounds below were run against Chromobox protein homolog 1 (Homo sapiens) (UniProt P83916) (assay: HTS for Inhibitors of HP1-beta Chromodomain Interactions with Methylated Histone Tails). Settings: AlphaScreen HP1-beta / biotin-H3K9me3 peptide binding; series mostly up to 114 µM; activity change, negative = inhibition: at the top concentration.
Procedure, shortened: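 Compound inhibition of the preformed complex between 50 nM HP1-beta and 50 nM biotinylated H3K9me3 peptide was read by AlphaScreen. Buffer was PBS pH 7.4 with 0.01% Tween-20. Incubations ran 30 min at room temperature, with 10 ug/mL donor/acceptor beads.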
Note: nearly all actives have a fitted effect of over 70% in size.
Potency is the fitted concentration of half-maximal effect; tags give direction and shape of the fitted curve.

Sequence of UniProt P83916 (P83916 whole entry, looked up): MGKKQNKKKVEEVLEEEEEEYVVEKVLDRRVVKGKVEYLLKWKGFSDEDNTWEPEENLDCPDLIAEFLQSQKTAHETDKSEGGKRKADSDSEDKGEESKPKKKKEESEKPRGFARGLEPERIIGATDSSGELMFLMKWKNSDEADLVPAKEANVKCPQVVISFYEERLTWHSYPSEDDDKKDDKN

`COc1cc(C(=O)N2CCN(C3CCCCC3)CC2)cc(OC)c1OC` was tested. Which Potency did it give?
Its Potency is inconclusive: 35.5 µM [inhibitor, partial curve].

With `CC(C)(C)CC(=O)NC(=S)NCc1ccccc1` as the compound, how does the “activity change, negative = inhibition” value read?
The value was inactive: 58.1%.

For `CCOC(=O)c1c(NC(=O)CCC(=O)O)sc2c1CCCCC2`, which Potency is on record?
The Potency was inconclusive: 35.5 µM [inhibitor, partial curve, poor fit].

For `COc1cccc(/C=N\NC(=O)C2C(=O)NCC2c2ccccc2)c1O` (stereo not drawn), which “activity change, negative = inhibition” value is on record?
Its value is inactive: 38.3%.

Which Potency does the source give for `Cc1ccccc1N1CCN(Cc2ccc([N+](=O)[O-])o2)CC1` here?
The Potency was inconclusive: 14.1 µM [inhibitor, full curve].

Which “activity change, negative = inhibition” value does the source give for `CC(=O)N1CC=CC1(C)C(=O)NCc1cc(F)cc(C(F)(F)F)c1` (stereo not drawn) here?
The value was inactive: 55.8%.

Which “activity change, negative = inhibition” value does the source give for `O=C(CN1C(=O)c2ccccc2S1(=O)=O)c1ccc(Cl)cc1Cl` here?
The value was inactive: 42.3%.

Which Potency does the source give for `Fc1ccc(C(CCNCc2ccccn2)c2ccc(Cl)cc2)cc1` (stereo not drawn) here?
The Potency was inconclusive: 79.4 µM [inhibitor, partial curve].

Which “activity change, negative = inhibition” value does the source give for `Cc1cc(C)n(CC(O)COCc2ccccc2)n1` (stereo not drawn) here?
The value was inactive: 27.6%.

`Brc1ccccc1C1CC(c2ccccc2)=Nc2ccccc2N1` (stereo not drawn) was tested. Which “activity change, negative = inhibition” value did it give?
The value was inactive: -24.3%.

With `CCOc1ccc(/C(O)=C2/C(=O)C(=O)N(c3ccccn3)C2c2ccc(C)cc2)c(C)c1` (stereo not drawn) as the compound, how does the Potency read?
Its Potency is inconclusive: 79.4 µM [inhibitor, partial curve, poor fit].

How did the Potency turn out when `Cc1ccc(C(=O)Nc2nnc(S(=O)(=O)N3CCCCCC3)s2)cc1` was run?
Its Potency is inconclusive: 44.7 µM [inhibitor, partial curve].

Which Potency does the source give for `CC(=O)NC1Sc2ccccc2N=C1c1ccccc1` (stereo not drawn) here?
The Potency was inconclusive: 79.4 µM [inhibitor, single point].

`CN1CCN(c2ccccc2NC(=O)c2ccc(N3CCCC3)c([N+](=O)[O-])c2)CC1` was tested. Which Potency did it give?
The Potency was inconclusive: 70.8 µM [inhibitor, partial curve].

How did the “activity change, negative = inhibition” value turn out when `O=C(CSCc1ccc(Br)cc1)N1CCCC1` was run?
Its value is inactive: 53.8%.

Which Potency does the source give for `Oc1ccc(/C=N/Nc2ccc3ccccc3c2)c(O)c1` here?
Its Potency is inconclusive: 79.4 µM [inhibitor, partial curve].

Which “activity change, negative = inhibition” value does the source give for `O=C(COC(=O)CCC(=O)c1ccc(F)cc1)Nc1ccc(N2CCOCC2)cc1` here?
The value was inactive: 30.1%.

`Cc1c(N2C(=O)c3ccc4c5c(ccc(c35)C2=O)CC4)c(=O)n(-c2ccccc2)n1C` was tested. Which Potency did it give?
Its Potency is inconclusive: 44.7 µM [inhibitor, partial curve, poor fit].

For `COc1ccc(NC(=O)c2ccc(-c3ccc(-c4noc(C)n4)cc3C)cc2)cc1N1CCN(C)CC1`, which Potency is on record?
Its Potency is inconclusive: 28.2 µM [inhibitor, partial curve, poor fit].

With `O=C(COc1cccc(F)c1)N1c2ccccc2Sc2ccccc21` as the compound, how does the Potency read?
Its Potency is inconclusive: 56.2 µM [inhibitor, single point].

For `Cc1ccccc1N1C(=O)C2C3CC(=O)C(c4ccccc43)C2C1=O` (stereo not drawn), which Potency is on record?
The Potency was inconclusive: 39.8 µM [inhibitor, single point].

With `C/C(CC1CC2=C(CC1(C)C)C(C)(C)CCC2)=N\NC(N)=S` (stereo not drawn) as the compound, how does the Potency read?
Its Potency is inconclusive: 25.1 µM [inhibitor, full curve].

Which “activity change, negative = inhibition” value does the source give for `O=C(Nc1nnc(C2=COCCO2)o1)c1cccc(Br)c1` here?
Its value is inactive: 34.6%.

Which “activity change, negative = inhibition” value does the source give for `COc1cc(NC(=O)N[C@@H](Cc2c[nH]c3ccccc23)C(=O)O)c(C(=O)O)cc1OC` here?
Its value is inactive: 8.29%.

`O=[N+]([O-])c1cccnc1N1CCN(c2ccccc2F)CC1` was tested. Which Potency did it give?
The Potency was inconclusive: 56.2 µM [inhibitor, single point].

For `Cc1cc(-c2ccccc2)nc(N/N=C/c2ccc(N(C)C)cc2)n1`, which Potency is on record?
The Potency was inconclusive: 20 µM [inhibitor, full curve].

Which Potency does the source give for `O=C(Oc1ccccc1C(=S)N1CCOCC1)c1ccc([N+](=O)[O-])cc1[N+](=O)[O-]` here?
Its Potency is inconclusive: 50.1 µM [inhibitor, partial curve, poor fit].

For `COCCN(C(=O)COC(=O)c1cc2c(s1)CCCC2)c1c(N)n(Cc2ccccc2)c(=O)[nH]c1=O`, which “activity change, negative = inhibition” value is on record?
The value was inactive: 2.96%.

Which Potency does the source give for `N#C/C(=C\c1coc2ccccc2c1=O)C(N)=S` here?
The Potency was inconclusive: 10 µM [inhibitor, full curve].

Which Potency does the source give for `O=C(Oc1cccc(/C=N/Nc2nc(Nc3ccccc3)nc(N3CCOCC3)n2)c1)c1ccco1` here?
Its Potency is inconclusive: 28.2 µM [inhibitor, single point].

How did the “activity change, negative = inhibition” value turn out when `CCN(CC(=O)N1CCCCCC1)S(=O)(=O)c1ccc(Cl)cc1` was run?
The value was inactive: 37%.

`CO[C@H]1/C=C/O[C@@]2(C)Oc3c(C)c(O)c4c(O)c(c(C=NN5CCN(C)CC5)c(O)c4c3C2=O)NC(=O)/C(C)=C\C=C\[C@H](C)[C@H](O)[C@@H](C)[C@@H](O)[C@@H](C)[C@H](OC(C)=O)[C@@H]1C` was tested. Which Potency did it give?
Its Potency is inconclusive: 39.8 µM [inhibitor, partial curve].

`[O-][N+]1=c2ccc(Nc3ccccc3)cc2=NC12CCCCC2` was tested. Which Potency did it give?
Its Potency is inconclusive: 50.1 µM [inhibitor, single point].

`O=C(Nc1cccc(S(=O)(=O)NC2=NCCCCC2)c1)c1cc(-c2ccc(Cl)cc2)nc2ccccc12` was tested. Which “activity change, negative = inhibition” value did it give?
The value was inactive: 0.202%.

`Cc1cc(-c2n[nH]c(=S)n2/N=C/c2cc([N+](=O)[O-])ccc2Cl)n[nH]1` was tested. Which Potency did it give?
The Potency was inconclusive: 70.8 µM [inhibitor, single point].

How did the “activity change, negative = inhibition” value turn out when `CCOC(=O)C(=CNc1cc(Cl)c(-c2ccco2)c(Cl)c1)C(=O)OCC` was run?
The value was inactive: -9.03%.

`Cc1c(OCC(=O)NCc2ccccn2)ccc2c3c(c(=O)oc12)CCCC3` was tested. Which “activity change, negative = inhibition” value did it give?
Its value is inactive: 13.5% [at 57 µM].

`N#C/C(=C\c1ccc(O)c(O)c1)C(=O)N1CCc2ccccc21` was tested. Which Potency did it give?
The Potency was inconclusive: 5.62 µM [inhibitor, full curve].

Which Potency does the source give for `Cc1cc(OC(C)C(=O)N/N=C/CC(C)c2ccccc2)ccc1Cl` (stereo not drawn) here?
Its Potency is inconclusive: 31.6 µM [inhibitor, single point].

How did the Potency turn out when `COc1ccccc1NC(=O)c1ccc(S(=O)(=O)N2CCC(C)CC2)cc1` was run?
The Potency was inconclusive: 89.1 µM [inhibitor, single point].

How did the “activity change, negative = inhibition” value turn out when `CCCCCN1C(C(=O)c2ccccc2)=C(NC(=O)c2ccc(C)cc2)c2ccccc2S1(=O)=O` was run?
The value was inactive: 9.25%.

For `Cc1oc2c(C)c3oc(=O)c(CC(=O)N[C@@H](CC(C)C)C(=O)N[C@@H](Cc4ccccc4)C(=O)O)c(C)c3cc2c1C`, which Potency is on record?
Its Potency is inconclusive: 39.8 µM [inhibitor, full curve].

`O=C(O)C1Sc2[nH]c(=O)sc2C2c3cc(Br)ccc3OC(=O)C12` (stereo not drawn) was tested. Which Potency did it give?
The Potency was inconclusive: 8.91 µM [inhibitor, partial curve, poor fit].
